# Test results reported in article PMC10348673 (Science Advances, 2023).
# What was measured:
# RIT1 A57G (17 to 197) = biological target: T1, RIT1 A57G (17 to 197) (UniProt Q92963 partial chain, A57G); experiment: ITC; MicroCal PEAQ-ITC; 300 μM RAF RBD in the syringe titrated onto 100 μM RIT1 (GMPPNP-bound) in the cell; 20 mM Hepes, 150 mM NaCl pH 7.4, 5 mM MgCl2, 1 mM TCEP; average of three experiments; conditions: both partners purified
# T1 construct: 15N-labelled or unlabelled in the NMR; A glycine may be left at the N-terminus after TEV cleavage (surmised); source: E. coli, purified (IMAC, TEV digest, second IMAC, SEC); not shown: His6, N-terminal, cleaved; MBP, N-terminal, cleaved
# RAF1-nanoLuc = biological target: T2, RAF1-nanoLuc (UniProt P04049); experiment: FRET or BRET; nanoBRET in intact HEK293T cells; mVenus-RIT1 acceptor titrated (0 to 1000 ng DNA), RAF-nanoLuc donor constant; BRET50 from non-linear fit; conditions: partners not purified
# T2 construct: RAF1 (CRAF), BRET donor fusion; also called RAF1-nanLuc; RAF-nanoLuc (donor); source: HEK293T, transfected, in intact cells
# Sequence of RIT1 A57G (17 to 197) (Q92963 17-197 A57G): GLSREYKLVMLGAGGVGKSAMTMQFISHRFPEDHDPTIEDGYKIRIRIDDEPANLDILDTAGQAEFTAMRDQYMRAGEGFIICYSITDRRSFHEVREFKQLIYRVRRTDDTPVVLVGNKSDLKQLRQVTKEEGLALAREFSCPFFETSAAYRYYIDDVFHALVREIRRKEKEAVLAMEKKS
binding result (RIT1 A57G (17 to 197)),fold tighter than WT RIT1 (by BRET50) (RAF1-nanoLuc),Binder
binds,–,"BRAF-RBD ([…]) (domain or fragment, A glycine may be left at the N-terminus after TEV cleavage (surmised); also called BRAF ([…]); source: E. coli, purified (IMAC, TEV digest, second IMAC, SEC); not shown: His6, N-terminal, cleaved; MBP, N-terminal, cleaved) not shown"
–,~10 fold,"mVenus-RIT1 A57G (natural protein, RIT1 A57G, BRET acceptor fusion; source: HEK293T, transfected, in intact cells) not shown"
